Test results from PMC7672110 (Scientific Reports, 2020).

Biological target: T1, TRAIL (114-281), His-tagged (human, UniProt P50591 114-281)
T1 construct: TRAIL (TNF-related apoptosis-inducing ligand), soluble form, amino acids 114-281; The TRAIL gene stood between NdeI and BamHI of pET-28a; the construct of TRAIL alone is not described apart from that; Native TRAIL without His tag was used only for pharmacokinetics; also called monomeric TRAIL; His-tagged TRAIL; source: E. coli BL21 (DE3), purified (Ni-NTA agarose)
Experiment: SPR; DR5 extracellular region immobilised by amine coupling on dextran-coated chips (585 RU); TRAIL-ATNC 0.52-8.33 nM or TRAIL 25-400 nM flowed at 25 ul/min, 25 C; 100 mM Tris pH 7.4, 150 mM NaCl, 0.005% Tween20, 1 mM DTT; 1:1 Langmuir model
Conditions: both partners purified

B1: extracellular region (1-182) of the DR5 protein (receptor)
chain: not shown
notes: signal peptide in the construct; TRAIL receptor 2 (death receptor 5, DR5), extracellular region, residues 1-182; The catalogue product may carry a His tag (surmised from the catalogue number); also called TRAIL receptor 2; death receptor 5; source: bought: Sino Biological
- Kd: 60.2 nM
- koff: 0.0015 s⁻¹
- kon: 25800 M⁻¹ s⁻¹
